Patent US20170082633A1 (WHITEHEAD INSTITUTE FOR BIOMEDICAL RESEARCH, published 2017)

What was measured:
Experiment in all cases: FLAG IP from transfected HEK-293T cells, immunoblot
FLAG-SLC38A9.4 = biological target: T1, FLAG-SLC38A9.4 (human, UniProt Q8NBW4 120-561)
T1 construct: also called SLC38A9 isoform 4; isoform 4
T1 sequence: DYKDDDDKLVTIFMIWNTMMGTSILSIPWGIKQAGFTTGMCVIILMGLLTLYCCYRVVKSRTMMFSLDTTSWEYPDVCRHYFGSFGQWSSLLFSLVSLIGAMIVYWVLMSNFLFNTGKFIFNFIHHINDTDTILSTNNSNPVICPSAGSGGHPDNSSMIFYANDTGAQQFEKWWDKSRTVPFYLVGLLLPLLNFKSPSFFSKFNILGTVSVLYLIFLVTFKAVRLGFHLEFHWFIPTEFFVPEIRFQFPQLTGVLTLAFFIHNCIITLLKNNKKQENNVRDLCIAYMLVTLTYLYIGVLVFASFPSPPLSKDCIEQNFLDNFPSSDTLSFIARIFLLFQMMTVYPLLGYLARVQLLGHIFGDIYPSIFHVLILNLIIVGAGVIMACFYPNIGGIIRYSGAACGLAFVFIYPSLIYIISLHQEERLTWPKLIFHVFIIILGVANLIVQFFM
Protocol: (§1) HEK-293T cells were cultured in DMEM supplemented with 10% inactivated fetal bovine serum, penicillin (100 IU/mL), and streptomycin (100 μg/mL) and maintained at 37° C. and 5% CO₂. Two million HEK-293T cells were plated in 10 cm culture dishes.
(§2) Transfection mixes were taken up to a total of 5 μg of DNA using empty pRK5. HEK-293T cells stably expressing FLAG-tagged proteins were rinsed once with ice-cold PBS and lysed in ice-cold lysis buffer (40 mM HEPES pH 7.4, 1% Triton X-100, 10 mM β-glycerol phosphate, 10 mM pyrophosphate, 2.5 mM MgC12 and 1 tablet of EDTA-free protease inhibitor (Roche) per 25 ml buffer). The soluble fractions from cell lysates were isolated by centrifugation at 13,000 rpm for 10 min in a microcentrifuge. […] Immunoprecipitates were washed three times with lysis buffer containing 500 mM NaCl. Immunoprecipitated proteins were denatured by the addition of 50 μL of sample buffer and incubation at RT for 30 min. It is critical that the samples containing SLC38A9 are neither boiled nor frozen prior to resolution by SDS-PAGE and analysis by immunoblotting. A similar protocol was employed when preparing samples for mass spectrometry.

FLAG-SLC38A9.1 Δ110 = biological target: T2, FLAG-SLC38A9.1 Δ110 (human, UniProt Q8NBW4 111-561)
T2 construct: also called SLC38A9 Δ110
T2 sequence: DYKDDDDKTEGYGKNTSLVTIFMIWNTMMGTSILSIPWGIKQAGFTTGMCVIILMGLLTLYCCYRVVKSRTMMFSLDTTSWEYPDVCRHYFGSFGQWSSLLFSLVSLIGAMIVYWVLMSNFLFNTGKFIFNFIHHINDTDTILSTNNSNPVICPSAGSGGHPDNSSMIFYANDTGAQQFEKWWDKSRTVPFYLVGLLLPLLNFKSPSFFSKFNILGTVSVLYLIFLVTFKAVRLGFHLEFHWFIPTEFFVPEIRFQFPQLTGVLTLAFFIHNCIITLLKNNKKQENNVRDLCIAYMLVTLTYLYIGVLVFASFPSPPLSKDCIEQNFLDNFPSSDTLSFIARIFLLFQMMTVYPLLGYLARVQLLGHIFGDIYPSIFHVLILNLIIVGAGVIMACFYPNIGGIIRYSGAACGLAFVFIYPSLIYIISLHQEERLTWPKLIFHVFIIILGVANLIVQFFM
Protocol: as §1, §2

FLAG-metap2 = biological target: T3, FLAG-metap2 (UniProt P50579 1-478)
T3 construct: Control bait; also called control protein Metap2
Protocol: as §1, §2

Measured: binding result

B1: endogenous RagC (enzyme)
chain: not shown
notes: Detected by immunoblot in anti-FLAG immunoprecipitates; also called RagC GTPase
no binding: all assays above
